# From the CheMixHub viscosity set
# ± gives the uncertainty stated by the source. This continues a long series; more values of the same kind are listed elsewhere.
# Assay: xn = mol fraction of the nth substance listed
structure (smiles),measurement,setting,value
C1COCCO1 + O,viscosity,"293.15 K, 101 kPa, x1 = 0.00206",1.028 ± 0.0063 mPa·s
same,viscosity,"293.15 K, 101 kPa, x1 = 0.00628",1.069 ± 0.0066 mPa·s
same,viscosity,"293.15 K, 101 kPa, x1 = 0.01516",1.155 ± 0.007 mPa·s
same,viscosity,"293.15 K, 101 kPa, x1 = 0.03482",1.326 ± 0.008 mPa·s
same,viscosity,"293.15 K, 101 kPa, x1 = 0.05303",1.482 ± 0.0088 mPa·s
same,viscosity,"293.15 K, 101 kPa, x1 = 0.07366",1.651 ± 0.0098 mPa·s
same,viscosity,"293.15 K, 101 kPa, x1 = 0.08413",1.737 ± 0.01 mPa·s
same,viscosity,"293.15 K, 101 kPa, x1 = 0.1114",1.924 ± 0.011 mPa·s
same,viscosity,"293.15 K, 101 kPa, x1 = 0.1433",2.083 ± 0.012 mPa·s
same,viscosity,"293.15 K, 101 kPa, x1 = 0.1726",2.174 ± 0.013 mPa·s
same,viscosity,"293.15 K, 101 kPa, x1 = 0.2065",2.228 ± 0.013 mPa·s
same,viscosity,"293.15 K, 101 kPa, x1 = 0.2501",2.233 ± 0.013 mPa·s
same,viscosity,"293.15 K, 101 kPa, x1 = 0.3029",2.202 ± 0.013 mPa·s
same,viscosity,"293.15 K, 101 kPa, x1 = 0.356",2.126 ± 0.013 mPa·s
same,viscosity,"293.15 K, 101 kPa, x1 = 0.4203",1.996 ± 0.013 mPa·s
same,viscosity,"293.15 K, 101 kPa, x1 = 0.4996",1.843 ± 0.012 mPa·s
same,viscosity,"293.15 K, 101 kPa, x1 = 0.5367",1.776 ± 0.012 mPa·s
same,viscosity,"293.15 K, 101 kPa, x1 = 0.5999",1.672 ± 0.011 mPa·s
same,viscosity,"293.15 K, 101 kPa, x1 = 0.6479",1.6 ± 0.011 mPa·s
same,viscosity,"293.15 K, 101 kPa, x1 = 0.7309",1.501 ± 0.01 mPa·s
same,viscosity,"293.15 K, 101 kPa, x1 = 0.7621",1.469 ± 0.01 mPa·s
same,viscosity,"293.15 K, 101 kPa, x1 = 0.7953",1.436 ± 0.01 mPa·s
same,viscosity,"293.15 K, 101 kPa, x1 = 0.8686",1.38 ± 0.01 mPa·s
same,viscosity,"293.15 K, 101 kPa, x1 = 0.9092",1.353 ± 0.01 mPa·s
same,viscosity,"293.15 K, 101 kPa, x1 = 0.976",1.317 ± 0.01 mPa·s
same,viscosity,"293.15 K, 101 kPa, x2 = 0.0145",1.313 ± 0.01 mPa·s
same,viscosity,"295.1 K, 101.32 kPa, x1 = 0.02221",1.163 ± 0.0071 mPa·s
same,viscosity,"295.1 K, 101.32 kPa, x1 = 0.04863",1.393 ± 0.0083 mPa·s
same,viscosity,"295.1 K, 101.32 kPa, x1 = 0.08057",1.639 ± 0.0097 mPa·s
same,viscosity,"295.1 K, 101.32 kPa, x1 = 0.12",1.861 ± 0.011 mPa·s
same,viscosity,"295.1 K, 101.32 kPa, x1 = 0.1698",2.072 ± 0.012 mPa·s
same,viscosity,"295.1 K, 101.32 kPa, x1 = 0.2347",2.168 ± 0.013 mPa·s
same,viscosity,"295.1 K, 101.32 kPa, x1 = 0.2949",2.144 ± 0.013 mPa·s
same,viscosity,"295.1 K, 101.32 kPa, x1 = 0.323",2.119 ± 0.013 mPa·s
same,viscosity,"295.1 K, 101.32 kPa, x1 = 0.3802",2.048 ± 0.012 mPa·s
same,viscosity,"295.1 K, 101.32 kPa, x1 = 0.4499",1.889 ± 0.012 mPa·s
same,viscosity,"295.1 K, 101.32 kPa, x1 = 0.5367",1.734 ± 0.011 mPa·s
same,viscosity,"295.1 K, 101.32 kPa, x1 = 0.6479",1.548 ± 0.01 mPa·s
same,viscosity,"295.1 K, 101.32 kPa, x1 = 0.7953",1.396 ± 0.01 mPa·s
same,viscosity,"295.1 K, 101.32 kPa, x1 = 0.8686",1.347 ± 0.0099 mPa·s
same,viscosity,"295.1 K, 101.32 kPa, x1 = 0.9529",1.282 ± 0.0098 mPa·s
same,viscosity,"298.15 K, 101 kPa, x1 = 0.00163",0.8989 ± 0.0062 mPa·s
same,viscosity,"298.15 K, 101 kPa, x1 = 0.00205",0.9073 ± 0.0062 mPa·s
same,viscosity,"298.15 K, 101 kPa, x1 = 0.00206",0.9128 ± 0.0057 mPa·s
same,viscosity,"298.15 K, 101 kPa, x1 = 0.0022",0.9086 ± 0.0062 mPa·s
same,viscosity,"298.15 K, 101 kPa, x1 = 0.00306",0.917 ± 0.0063 mPa·s
same,viscosity,"298.15 K, 101 kPa, x1 = 0.00415",0.9254 ± 0.0063 mPa·s
same,viscosity,"298.15 K, 101 kPa, x1 = 0.00523",0.9354 ± 0.0064 mPa·s
same,viscosity,"298.15 K, 101 kPa, x1 = 0.00628",0.9453 ± 0.0059 mPa·s
same,viscosity,"298.15 K, 101 kPa, x1 = 0.0063",0.9446 ± 0.0065 mPa·s
same,viscosity,"298.15 K, 101 kPa, x1 = 0.00844",0.9613 ± 0.0066 mPa·s
same,viscosity,"298.15 K, 101 kPa, x1 = 0.01064",0.9805 ± 0.0067 mPa·s
same,viscosity,"298.15 K, 101 kPa, x1 = 0.01287",0.9996 ± 0.0069 mPa·s
same,viscosity,"298.15 K, 101 kPa, x1 = 0.01516",1.017 ± 0.0063 mPa·s
same,viscosity,"298.15 K, 101 kPa, x1 = 0.01748",1.039 ± 0.0072 mPa·s
same,viscosity,"298.15 K, 101 kPa, x1 = 0.01987",1.062 ± 0.0073 mPa·s
same,viscosity,"298.15 K, 101 kPa, x1 = 0.0226",1.083 ± 0.0075 mPa·s
same,viscosity,"298.15 K, 101 kPa, x1 = 0.02719",1.122 ± 0.0078 mPa·s
same,viscosity,"298.15 K, 101 kPa, x1 = 0.03233",1.157 ± 0.008 mPa·s
same,viscosity,"298.15 K, 101 kPa, x1 = 0.03482",1.164 ± 0.0071 mPa·s
same,viscosity,"298.15 K, 101 kPa, x1 = 0.03751",1.197 ± 0.0083 mPa·s
same,viscosity,"298.15 K, 101 kPa, x1 = 0.04289",1.242 ± 0.0087 mPa·s
same,viscosity,"298.15 K, 101 kPa, x1 = 0.04885",1.282 ± 0.009 mPa·s
same,viscosity,"298.15 K, 101 kPa, x1 = 0.05303",1.299 ± 0.0078 mPa·s
same,viscosity,"298.15 K, 101 kPa, x1 = 0.06378",1.392 ± 0.01 mPa·s
same,viscosity,"298.15 K, 101 kPa, x1 = 0.07366",1.448 ± 0.0087 mPa·s
same,viscosity,"298.15 K, 101 kPa, x1 = 0.08066",1.499 ± 0.011 mPa·s
same,viscosity,"298.15 K, 101 kPa, x1 = 0.08413",1.522 ± 0.0091 mPa·s
same,viscosity,"298.15 K, 101 kPa, x1 = 0.09926",1.61 ± 0.012 mPa·s
same,viscosity,"298.15 K, 101 kPa, x1 = 0.1114",1.681 ± 0.01 mPa·s
same,viscosity,"298.15 K, 101 kPa, x1 = 0.1214",1.728 ± 0.013 mPa·s
same,viscosity,"298.15 K, 101 kPa, x1 = 0.1433",1.817 ± 0.011 mPa·s
same,viscosity,"298.15 K, 101 kPa, x1 = 0.1703",1.913 ± 0.016 mPa·s
same,viscosity,"298.15 K, 101 kPa, x1 = 0.1726",1.892 ± 0.011 mPa·s
same,viscosity,"298.15 K, 101 kPa, x1 = 0.2",1.923 ± 0.016 mPa·s
same,viscosity,"298.15 K, 101 kPa, x1 = 0.2065",1.944 ± 0.011 mPa·s
same,viscosity,"298.15 K, 101 kPa, x1 = 0.2344",1.991 ± 0.019 mPa·s
same,viscosity,"298.15 K, 101 kPa, x1 = 0.2501",1.953 ± 0.012 mPa·s
same,viscosity,"298.15 K, 101 kPa, x1 = 0.3029",1.934 ± 0.012 mPa·s
same,viscosity,"298.15 K, 101 kPa, x1 = 0.3224",1.926 ± 0.021 mPa·s
same,viscosity,"298.15 K, 101 kPa, x1 = 0.356",1.893 ± 0.012 mPa·s
same,viscosity,"298.15 K, 101 kPa, x1 = 0.4",1.784 ± 0.016 mPa·s
same,viscosity,"298.15 K, 101 kPa, x1 = 0.4063",1.797 ± 0.023 mPa·s
same,viscosity,"298.15 K, 101 kPa, x1 = 0.4203",1.8 ± 0.011 mPa·s
same,viscosity,"298.15 K, 101 kPa, x1 = 0.4764",1.669 ± 0.023 mPa·s
same,viscosity,"298.15 K, 101 kPa, x1 = 0.4964",1.618 ± 0.023 mPa·s
same,viscosity,"298.15 K, 101 kPa, x1 = 0.4996",1.655 ± 0.011 mPa·s
same,viscosity,"298.15 K, 101 kPa, x1 = 0.5367",1.597 ± 0.01 mPa·s
same,viscosity,"298.15 K, 101 kPa, x1 = 0.5999",1.51 ± 0.01 mPa·s
same,viscosity,"298.15 K, 101 kPa, x1 = 0.6",1.453 ± 0.014 mPa·s
same,viscosity,"298.15 K, 101 kPa, x1 = 0.6421",1.412 ± 0.025 mPa·s
same,viscosity,"298.15 K, 101 kPa, x1 = 0.6479",1.451 ± 0.0099 mPa·s
same,viscosity,"298.15 K, 101 kPa, x1 = 0.7309",1.362 ± 0.0096 mPa·s
same,viscosity,"298.15 K, 101 kPa, x1 = 0.7621",1.333 ± 0.0095 mPa·s
same,viscosity,"298.15 K, 101 kPa, x1 = 0.7921",1.253 ± 0.026 mPa·s
same,viscosity,"298.15 K, 101 kPa, x1 = 0.7953",1.305 ± 0.0094 mPa·s
same,viscosity,"298.15 K, 101 kPa, x1 = 0.8",1.262 ± 0.014 mPa·s
same,viscosity,"298.15 K, 101 kPa, x1 = 0.8686",1.25 ± 0.0093 mPa·s
same,viscosity,"298.15 K, 101 kPa, x1 = 0.897",1.192 ± 0.028 mPa·s
same,viscosity,"298.15 K, 101 kPa, x1 = 0.9092",1.224 ± 0.0093 mPa·s
same,viscosity,"298.15 K, 101 kPa, x1 = 0.9502",1.18 ± 0.029 mPa·s
same,viscosity,"298.15 K, 101 kPa, x1 = 0.976",1.187 ± 0.0092 mPa·s
same,viscosity,"298.15 K, 101 kPa, x2 = 0.003",1.18 ± 0.03 mPa·s
same,viscosity,"298.15 K, 101 kPa, x2 = 0.0145",1.182 ± 0.0092 mPa·s
same,viscosity,"298.15 K, 101 kPa, x2 = 0.135",1.21 ± 0.03 mPa·s
